PubChem BioAssay (NCATS)
Several values for one entry are separate records, joined by “and”; a condition that tells them apart may be missing. Equal values may be shown once. Inconclusive results, whose numbers are uncertain, are shown with a selection of clear calls. Where the call is inconclusive, the potency comes from a doubtful curve fit. Activity calls are given as the source filed them. Calls follow the shape of the dose curve; as a rule, active = well fitted curve in the direction sought with a large enough effect; inconclusive = small, poorly fitted or top-dose-only effect, or another doubt; inactive = no such curve, though single readings can be large; an effect the other way counts as inactive or inconclusive.

Legend:
[1] = Cell Proliferation Assay against the TMD8 Cell Line (Caspase readout at 8 hrs) (AID 651713); conditions: TMD8 lymphoma cells, caspase activation luminescence; caspase activation: at 46.1 µM (top of the series); also: potency is read from the fitted curve at half-maximal effect;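 as to caspase activation: 0% = DMSO and 100% = 9.2 µM bortezomib caspase signal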
How it was run: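 Apoptosis read-out: Caspase-Glo luminescence after 8 h compound exposure of TMD8 lymphoma cells at 37C, 5% CO2. Signals were normalized as percent activity between DMSO and bortezomib (9.2 uM final) controls.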

[2] = Identifying Small Molecule Inhibitors of Pancreatic Cancer Stem Cells (A2780, Spheroid) (AID 1259357); conditions: Potency: A2780 spheroid viability; viability (percent of control): at 46.1 µM (top of the series);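 also: compound exposure lasted 48 h before the ATP luminescence read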; also: potency is read from the fitted curve at half-maximal effect;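 as to viability (percent of control): 100% = DMSO treated cells and 0% = wells without cells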
How it was run: (§1)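 Endpoint: ATP-based luminescence, 48 h drug exposure. Bortezomib at 9.2 uM final as full-kill control; DMSO vehicle as negative control; activity normalized between vehicle and cell-free wells.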

[3] = Identifying Small Molecule Inhibitors of Pancreatic Cancer Stem Cells (SN12C, Spheroid) (AID 1259360); conditions: Potency: SN12C spheroid viability; also: potency is read from the fitted curve at half-maximal effect;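 as to viability (% of control): 100% = DMSO-treated cells and 0% = wells without cells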
How it was run: as §1

[4] = Identifying Small Molecule Inhibitors of Pancreatic Cancer Stem Cells (A278, Adherent) (AID 1259361); also: nearly all actives have a fitted effect of over 35% in size
How it was run: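 Spheroids grown 14 days in stem cell media on hydrogel-coated nonadherent plates; 2D lines seeded directly. Compounds added after 4 h attachment, 48 h at 37C, 5% CO2; CellTiter-Glo luminescence normalized to DMSO (no inhibition) and no-cell wells (full inhibition).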

[5] = Identifying Small Molecule Inhibitors of Pancreatic Cancer Stem Cells (Panc1, Adherent) (AID 1259362); conditions: Potency: viability unless noted; viability, % of control: at 46.1 µM (top of the series) unless noted; also: potency is read from the fitted curve at half-maximal effect;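 as to viability, % of control: compound exposure lasted 48 h before the viability read; plate controls were DMSO-treated cells for no effect and cell-free media wells for full effect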
How it was run: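 Cytotoxicity read by CellTiter-Glo luminescence after 48 h compound exposure at 37C; percent activity scaled between DMSO-treated cells and cell-free wells. Spheroid formats used cells pre-formed 14 days in stem cell media on hydrogel.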

[6] = qHTS of pediatric cancer cell lines to identify multiple opportunities for drug repurposing: Primary screen for BT-12 cells (AID 1347101); also: potency is read from the fitted curve at half-maximal effect; nearly all actives have a fitted effect of over 25% in size
How it was run: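 Cells (500-1,000/well) rested 5 h, then received compounds for 48 h; metabolically active cells were measured by CellTiter-Glo luminescence. Final concentrations spanned up to 46 µM (MIPE, 11-point) or 0.59 nM-46 µM (NPC, 8-point) in primary screens, 11-point in follow-ups.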

[7] = qHTS of pediatric cancer cell lines to identify multiple opportunities for drug repurposing: Primary screen for Rh18 cells (AID 1347102); also: potency is read from the fitted curve at half-maximal effect; nearly all actives have a fitted effect of over 65% in size
How it was run: (§2)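 Viability after 48 h compound treatment at 37C, 500-1,000 cells/well, read as ATP luminescence with CellTiter-Glo. Primary screens used 11-point (MIPE, 0.78 nM-46 µM) or 8-point (NPC, 0.59 nM-46 µM) final concentrations; follow-up screens used 11-point dilutions.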

[8] = qHTS of pediatric cancer cell lines to identify multiple opportunities for drug repurposing: Primary screen for Rh41 cells (AID 1347108); also: potency is read from the fitted curve at half-maximal effect; nearly all actives have a fitted effect of over 70% in size
How it was run: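 Primary screen of approved and investigational compounds on cells in growth media at 37 degrees C, 5% CO2. MIPE set at 11-point and NPC set at 8-point dilutions; viability scored by ATP-based luminescence at 48 hours.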

[9] = Quantitative High-Throughput drug screen in 47 multiple myeloma cell lines against the NCATS MIPE library collection: JIM1_ECACC cell viability assay (AID 1918964; also: potency is read from the fitted curve at half-maximal effect)
How it was run: (§3)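 Approved and investigational drugs from MIPE 4.0 were added by pin tool to 500 cells per well. After 48 hours at 37C, ATP-based CellTiter-Glo luminescence indicated remaining viability.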

[10] = Quantitative High-Throughput drug screen in 47 multiple myeloma cell lines against the NCATS MIPE library collection: KMS20_JCRB cell viability assay (AID 1918973); conditions: CellTiter-Glo ATP, 48 h; viability (% of DMSO): at 45.8 µM (top of the series); also: potency is read from the fitted curve at half-maximal effect; nearly all actives have a fitted effect of over 45% in size
How it was run: as §3

[11] = Quantitative High-Throughput drug screen in 47 multiple myeloma cell lines against the NCATS MIPE library collection: KMS21BM_JCRB cell viability assay (AID 1918974); conditions: ATP luminescence, 48 h; viability: at 45.8 µM (top of the series); also: potency is read from the fitted curve at half-maximal effect
How it was run: as §3

[12] = Quantitative High-Throughput drug screen in 47 multiple myeloma cell lines against the NCATS MIPE library collection: L363_DSMZ cell viability assay (AID 1918984); conditions: L363 myeloma viability, CellTiter-Glo ATP luminescence, 48 h; viability (% of control): at 45.8 µM (top of the series); also: nearly all actives have a fitted effect of over 40% in size; also: potency is read from the fitted curve at half-maximal effect
How it was run: (§4)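 Cells were exposed to library compounds for 48 hours, after which ATP was measured by CellTiter-Glo. Signal was taken as median relative luminescence units.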

CRL-7250 = normal cell line; assay: Cytotoxic Profiling of Annotated Libraries Using Quantitative High-Throughput Screening (AID 1296008); conditions: Five cell lines viability, CellTiter-Glo ATP luminescence, 48-72 h; max response: stronger effect = lower value; also: potency is read from the fitted curve at half-maximal effect; nearly all actives have a fitted effect of over 60% in size
How it was run: (§5)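 Cells exposed to compounds for 48 or 72 hr at 37 degrees Celsius. Viability read as ATP-coupled luminescence with CellTiter-Glo after 10 min at room temperature.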

HEK293 = assay: as above; conditions: Five cell lines viability, CellTiter-Glo ATP luminescence, 48-72 h; max response: stronger effect = lower value
How it was run: as §5

[13] = Identifying Small Molecule Inhibitors of Pancreatic Cancer Stem Cells (Panc1, Spheroid) (AID 1259359); conditions: Panc1 spheroid cancer stem cell viability; viability, % of control: at 46.1 µM (top of the series) unless noted;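 also: compound exposure lasted 48 h before reading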; also: potency is read from the fitted curve at half-maximal effect
How it was run: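 Spheroids grown 14 days in stem cell media on nonadherent hydrogel before screening; cells attached 4 h, then compound exposure 48 h at 37C, 5% CO2. CellTiter-Glo luminescence normalized to DMSO (no inhibition) and no-cell wells (full inhibition).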

[14] = P-glycoprotein substrates identified in KB-8-5-11 adenocarcinoma cell line, qHTS therapeutic library screen (AID 1346987); also: potency is read from the fitted curve at half-maximal effect; nearly all actives have a fitted effect of over 65% in size
How it was run: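 Compounds are pinned in dose-response onto KB-8-5-11 cells (500 cells/well, colchicine-free medium) and left 72 h at 37 degree C. CellTiter-Glo luminescence then yields AC50 values.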

[15] = qHTS of pediatric cancer cell lines to identify multiple opportunities for drug repurposing: Primary screen for Rh30 cells (AID 1347107); also: potency is read from the fitted curve at half-maximal effect; nearly all actives have a fitted effect of over 75% in size
How it was run: as §2

[16] = Cell Proliferation Assay against the TMD8 Cell Line (Caspase readout at 16 hrs) (AID 651712); conditions: TMD8 lymphoma cells, caspase activation luminescence; caspase activation: at 46.1 µM (top of the series); also: potency is read from the fitted curve at half-maximal effect
How it was run: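 Caspase-Glo luminescence after 16 h compound exposure of TMD8 cells, 37 °C, 5% CO2. Medium: RPMI without phenol red, 5% FBS. Normalisation: DMSO = 0%, bortezomib 9.2 uM final = 100%.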

[17] = Quantitative High-Throughput drug screen in 47 multiple myeloma cell lines against the NCATS MIPE library collection: MOLP8_DSMZ cell viability assay (AID 1918977); conditions: MOLP8 myeloma viability, CellTiter-Glo ATP luminescence, 48 h; viability (% of control): at 45.8 µM (top of the series); also: potency is read from the fitted curve at half-maximal effect; nearly all actives have a fitted effect of over 45% in size
How it was run: as §4

[18] = Quantitative High-Throughput drug screen in 47 multiple myeloma cell lines against the NCATS MIPE library collection: LP1_DSMZ cell viability assay (AID 1918982); also: potency is read from the fitted curve at half-maximal effect; nearly all actives have a fitted effect of over 35% in size
How it was run: as §4
Tags tell the direction and shape of the fitted curve.

COc1cc2nccc(Oc3ccc(NC(=O)NC4CC4)c(Cl)c3)c2cc1C(N)=O
Potency [1]: inactive | viability (percent of control) [2]: inconclusive: 74.7% | Potency [3]: inactive | IC50 (viability decrease) [4]: inconclusive: 3.32 µM [cytotoxic, partial curve] | Potency [5]: inactive | Potency [6]: active: 6.85 µM | Potency [7]: active: 5.26 µM | Potency [8]: active: 5.9 µM | Potency [9]: inconclusive: 0.833 µM [cytotoxic, full curve, poor fit] | Potency [10]: active: 13.2 µM | Potency [11]: inconclusive: 37.2 µM [rising, partial curve, poor fit] | Potency [12]: inactive | Potency (CRL-7250): inconclusive: 1.18 µM [inhibitor, full curve, poor fit] and active: 920 nM | Potency (HEK293): inconclusive: 16.6 µM [inhibitor, partial curve] and inconclusive: 29.1 µM [inhibitor, single point]

O=C(O)c1ccc2cc(-c3ccc(O)c(C45CC6CC(CC(C6)C4)C5)c3)ccc2c1
Potency [1]: inconclusive: 26.4 µM [activator, partial curve, poor fit] | Potency [2]: inconclusive: 10.5 µM [rising, full curve, poor fit] | Potency [13]: inconclusive: 1.66 µM [cytotoxic, full curve, poor fit] | Potency [3]: inconclusive: 0.662 µM [cytotoxic, full curve] | Potency [14]: inconclusive: 1.48 µM [inhibitor, full curve] | Potency [6]: inconclusive: 6.11 µM [cytotoxic, partial curve] | Potency [7]: inconclusive: 11.8 µM [cytotoxic, partial curve] | Potency [15]: inconclusive: 1.48 µM [cytotoxic, full curve] | Potency [10]: inconclusive: 0.332 µM [cytotoxic, full curve, poor fit] | Potency [11]: inconclusive: 0.0187 µM [rising, full curve, poor fit] | Potency [12]: active: 0.833 µM | Potency (CRL-7250): inconclusive: 0.372 µM [inhibitor, full curve]

CC[C@H](Nc1ncnc2nc[nH]c12)c1nc2cccc(F)c2c(=O)n1-c1ccccc1
Potency [16]: inconclusive: 52.6 µM [activator, single point] | Potency [2]: inconclusive: 37.2 µM [cytotoxic, single point] | Potency [13]: inconclusive: 9.35 µM [cytotoxic, partial curve, poor fit] | Potency [3]: inconclusive: 20.9 µM [cytotoxic, partial curve, poor fit] | Potency [5]: inactive | Potency [6]: inconclusive: 8.63 µM [cytotoxic, partial curve, poor fit] | Potency [7]: inconclusive: 13.2 µM [cytotoxic, partial curve] | Potency [15]: inconclusive: 10.5 µM [cytotoxic, partial curve] | Potency [8]: active: 14.8 µM | Potency [9]: inconclusive: 0.662 µM [cytotoxic, partial curve, poor fit] | Potency [10]: inconclusive: 8.33 µM [cytotoxic, partial curve, poor fit] | Potency [11]: inactive | Potency [17]: active: 23.5 µM | Potency [18]: inconclusive: 16.6 µM [cytotoxic, partial curve] | Potency [12]: inconclusive: 1.48 µM [cytotoxic, full curve, poor fit] | Potency (CRL-7250): inconclusive: 8.33 µM [inhibitor, full curve, poor fit]

CN1CCC(CNc2ccc3ncc(-c4cccc(OC(F)(F)F)c4)n3n2)CC1
Potency [16]: inconclusive: 8.33 µM [activator, full curve] | Potency [1]: active: 23.5 µM | Potency [2]: inconclusive: 1.66 µM [cytotoxic, full curve, poor fit] | Potency [13]: inconclusive: 9.35 µM [cytotoxic, full curve, poor fit] | Potency [3]: active: 23.5 µM | Potency [5]: inconclusive: 18.7 µM [cytotoxic, partial curve, poor fit] | Potency [6]: active: 27.3 µM | Potency [7]: active: 18.7 µM | Potency [15]: active: 23.5 µM | Potency [8]: active: 18.7 µM | Potency [9]: active: 8.33 µM | Potency [10]: active: 3.32 µM | Potency [11]: active: 9.35 µM | Potency [18]: active: 26.4 µM | Potency [12]: active: 7.43 µM | Potency (CRL-7250): inconclusive: 23.1 µM [inhibitor, single point] | Potency (HEK293): inconclusive: 25.9 µM [inhibitor, single point]

CCC(=C(c1ccccc1)c1ccc(OCCN(C)C)cc1)c1ccccc1
Potency [16]: inconclusive: 29.6 µM [activator, single point] | Potency [1]: active: 33.2 µM | Potency [2]: inconclusive: 10.5 µM [cytotoxic, full curve, poor fit] | viability, % of control [13]: inconclusive: 117% | IC50 (viability decrease) [4]: active: 23.5 µM | Potency [14]: inconclusive: 33.2 µM [inhibitor, single point] | Potency [6]: inconclusive: 34.3 µM [cytotoxic, single point] | Potency [8]: inconclusive: 5.9 µM [cytotoxic, partial curve] | Potency [9]: inconclusive: 23.5 µM [cytotoxic, partial curve, poor fit] | Potency [10]: inconclusive: 16.6 µM [cytotoxic, partial curve, poor fit] | Potency [11]: active: 18.7 µM | Potency [17]: inconclusive: 37.2 µM [cytotoxic, single point] | Potency [18]: inconclusive: 18.7 µM [cytotoxic, partial curve, poor fit] | Potency (HEK293): inconclusive: 37.2 µM [inhibitor, single point]
